Percent labeling data for 14 molecules are collected here from PubChem BioAssay AID2202238 (Ras Initiative Chemistry Research Team, Frederick National …, 2025).

The test has as its target GTPase KRas (Homo sapiens) (UniProt P01116). Kind of test: Covalent labelling of cysteine mutants by fragments, read by mass spectrometry (AID 2202238). Details: protein at 5 µM with 500 µM competing thiol for 1.5 h. The conditions noted are these: KRAS G12D cysteine mutants, disulfide tethering, MALDI-TOF labeling, stronger effect = higher value, fragment at 500 µM.
The mark [1] stands for this setting: measured here: G60C mutant labeling.
[2] abbreviates: measured here: G75C mutant labeling.
[3] abbreviates: measured here: H94C mutant labeling.
[4] abbreviates: measured here: I36C mutant labeling.
Setting [5] is: measured here: L120C mutant labeling.
The mark [6] stands for this setting: measured here: M67C mutant labeling.
Where [7] appears, read: measured here: M72C mutant labeling.
Setting [8] is: measured here: N26C mutant labeling.
The mark [9] stands for this setting: measured here: N86C mutant labeling.
Setting [10] is: measured here: P121C mutant labeling.
[11] abbreviates: measured here: S122C mutant labeling.
[12] abbreviates: measured here: S136C mutant labeling.

This is one part of the list. Shown are side measurements of this screen, not its main read-out; they come without a call.

UniProt P01116, sequence (P01116 whole entry, looked up, the tested form may be a part): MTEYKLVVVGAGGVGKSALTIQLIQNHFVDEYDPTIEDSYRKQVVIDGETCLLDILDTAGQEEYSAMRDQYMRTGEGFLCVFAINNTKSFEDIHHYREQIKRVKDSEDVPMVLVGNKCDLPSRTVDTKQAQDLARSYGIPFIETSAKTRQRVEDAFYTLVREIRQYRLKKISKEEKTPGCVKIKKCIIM

Take `O=C(CCCN1C(=O)c2ccccc2C1=O)NCCS`: the percent labeling reads like this: under setting [1], 40.2%; under setting [2], 18.3%; under setting [3], 36.1%; under setting [4], 30%; under setting [5], 43.6%; under setting [6], 52.4%. The same molecule registered a percent labeling under setting [7] of 29.3%; a percent labeling under setting [8] of 40.9%; a percent labeling under setting [9] of 31.8%; a percent labeling under setting [10] of 37.3%; a percent labeling under setting [11] of 34%; a percent labeling under setting [12] of 44.5%.

On to `CN(C)C(C(=O)NCCS)c1cscn1` (stereo not drawn), for which the percent labeling was found to be 26.7% under setting [1]; 8.8% under setting [2]; 25.2% under setting [3]; 24.4% under setting [4]; 29.3% under setting [5]; 25.8% under setting [6]. Besides, the percent labeling turned out to be 8.8% under setting [7]; 25% under setting [8]; 22.9% under setting [9]; 26.9% under setting [10]; 22.6% under setting [11]; 39.5% under setting [12].

Consider `O=C(CCS)Nc1cccc(C(=O)Nc2ccc(Br)cn2)c1`, for which the percent labeling is, setting by setting: under setting [2], 3.9%; under setting [3], 9.2%; under setting [4], 11.9%; under setting [5], 5.8%; under setting [6], 6.5%; under setting [7], 14.1%. The percent labeling under setting [9] amounted to 4%, the percent labeling under setting [10] amounted to 6%, the percent labeling under setting [11] was 3.9% and the percent labeling under setting [12] is 18.9%.

On to `CN1CCC(C(=O)NCCS)C(c2ccnn2C)C1` (stereo not drawn), for which the percent labeling runs as follows: under setting [1], 31.7%; under setting [2], 11.4%; under setting [3], 36.9%; under setting [4], 42%; under setting [5], 33.9%; under setting [6], 47.1%. Besides, the percent labeling runs as follows: under setting [7], 19.3%; under setting [8], 35%; under setting [9], 25.5%; under setting [10], 37.6%; under setting [11], 31.3%; under setting [12], 54.5%.

Regarding `Cc1ccc(NC(=O)CCS)cc1-c1nnnn1C1CC1`, the percent labeling is, setting by setting: under setting [2], 11.6%; under setting [3], 27.6%; under setting [4], 29.2%; under setting [5], 20.8%; under setting [6], 31.9%; under setting [7], 25.6%. Besides, the percent labeling runs as follows: under setting [9], 13.7%; under setting [10], 25.8%; under setting [11], 21.5%; under setting [12], 45.7%.

As to `O=C(CCS)N1CCc2[nH]cc(I)c(=O)c2C1`, the percent labeling by setting is: under setting [2], 20%; under setting [3], 38.9%; under setting [4], 49.4%; under setting [5], 50.7%; under setting [6], 42.3%; under setting [7], 27.5%. The molecule further showed a percent labeling under setting [9] of 45.8%, a percent labeling under setting [10] of 35%, a percent labeling under setting [11] of 38% and a percent labeling under setting [12] of 73.8%.

Take `NC(=O)Nc1cccc(NC(=O)CCS)c1`: the percent labeling reads like this: under setting [2], 17.4%; under setting [3], 41.8%; under setting [4], 34.1%; under setting [5], 34.6%; under setting [6], 33.1%; under setting [7], 39.9%. The molecule further came in with a percent labeling under setting [9] of 41.7%, a percent labeling under setting [10] of 37.1%, a percent labeling under setting [11] of 31.4% and a percent labeling under setting [12] of 49.5%.

Regarding `CCn1ncc2cc(C(=O)NCCS)c(C)nc21`, the percent labeling came to 33.5% under setting [1]; 15.7% under setting [2]; 30.1% under setting [3]; 23.9% under setting [4]; 26.4% under setting [5]; 33.1% under setting [6]. The percent labeling under setting [7] was determined as 34.7%; the percent labeling under setting [8] turned out to be 47.6%; the percent labeling under setting [9] worked out at 25%; the percent labeling under setting [10] was determined as 32.5%; the percent labeling under setting [11] stood at 27.5%; the percent labeling under setting [12] came to 49%.

`O=C(NCCS)c1nc(-c2ccccc2)ns1` yielded a percent labeling under setting [1] of 18.9%; a percent labeling under setting [2] of 12.2%; a percent labeling under setting [3] of 8.5%; a percent labeling under setting [4] of 6%; a percent labeling under setting [5] of 15.7%; a percent labeling under setting [6] of 6.1%. In addition, the percent labeling worked out at 18.1% under setting [7]; 22.5% under setting [8]; 6.4% under setting [9]; 9.3% under setting [10]; 7.7% under setting [11]; 11.7% under setting [12].

In the case of `Cc1cccnc1Oc1ccc(C(=O)NCCS)cc1`, the percent labeling by setting is: under setting [1], 22.6%; under setting [2], 9.9%; under setting [3], 14.5%; under setting [4], 9.8%; under setting [5], 18.7%; under setting [6], 20.7%. Further, the percent labeling turned out to be 33% under setting [7]; 34% under setting [8]; 11% under setting [9]; 14.6% under setting [10]; 15.6% under setting [11]; 24.7% under setting [12].

`Cc1ccn(-c2cccc(C(=O)NCCS)c2)n1` came in with a percent labeling under setting [1] of 32.4%; a percent labeling under setting [2] of 15.9%; a percent labeling under setting [3] of 24.1%; a percent labeling under setting [4] of 15.7%; a percent labeling under setting [5] of 26%; a percent labeling under setting [6] of 20.2%. In addition, the percent labeling is, setting by setting: under setting [7], 51.4%; under setting [8], 44.1%; under setting [9], 15.9%; under setting [10], 17.5%; under setting [11], 17.8%; under setting [12], 38.5%.

As for `O=C(CCc1ccc(F)c2c1CCCC2)NCCS`, the percent labeling came to 28.3% under setting [1]; 13.2% under setting [2]; 16.4% under setting [3]; 15.2% under setting [4]; 16.9% under setting [5]; 15% under setting [6]. Further, the percent labeling came to 38.9% under setting [7]; 25.8% under setting [8]; 13.7% under setting [9]; 15.4% under setting [10]; 11.9% under setting [11]; 21.9% under setting [12].

For the molecule `Cc1ccc(C(=O)NCCS)cc1N1CCOCC1`, the percent labeling runs as follows: under setting [1], 35.9%; under setting [2], 16.8%; under setting [3], 32.4%; under setting [4], 19.2%; under setting [5], 36.3%; under setting [6], 25.7%. Further, the percent labeling reads like this: under setting [7], 56%; under setting [8], 43.3%; under setting [9], 21.8%; under setting [10], 23.4%; under setting [11], 26.5%; under setting [12], 47.4%.

`O=C(CCS)Nc1ccc(-n2cnnc2)nc1`: the percent labeling reads like this: under setting [2], 16.6%; under setting [3], 24.2%; under setting [4], 40.7%; under setting [5], 19.3%; under setting [6], 27.5%; under setting [7], 28.6%. Moreover, the percent labeling under setting [9] came to 20.7%, the percent labeling under setting [10] was determined as 23.3%, the percent labeling under setting [11] stood at 19% and the percent labeling under setting [12] came to 37.3%.
